60 compounds from ChEMBL document CHEMBL1201862, “PubChem BioAssay data set” (2004) can be followed below.

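Tested at 5 concentrations; 48 h exposure; 96-well plates; endpoints linearly interpolated, else capped at highest concentration. GI50 = concentration required for 50% inhibition of growth.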 Active and inactive are the calls of the source. No stated cut-off is given here; in the data, active = GI50 up to about 1.1 µM and inactive = higher.

In this test the test system is NCI-H322M. Put plainly: NCI-60 cell line screen, 48 h.
Consider `CCCCCCCCCCCC(=O)c1c(O)cccc1O`, for which the GI50 is inactive: 19.2 µM.
The figure for `O=C(/C=C/c1ccc2c(c1)OCO2)NCc1ccco1` is inactive: > 100 µM; for `O=C(O)CCC(=O)c1ccc(Cl)cc1` it is inactive: > 100 µM.
The figure for `CC(=O)c1sc(-c2nc(C)c(C(=O)/C=C\c3ccc(/C=C\C(=O)c4sc(-c5nc(C)c(C(C)=O)s5)nc4C)cc3)s2)nc1C` is inactive: > 100 µM; for `NC1CNC(=O)c2c(Cl)sc(Cl)c21` (stereo not given) it is inactive: > 100 µM; for `COc1ccc(C2C(C=O)C(N3CCN(C)CC3)=Nc3nc4ccccc4n32)cc1` (stereo not given) it is inactive: 15.1 µM.
In the case of `NC(=O)C(C(N)=O)=C(O)/C(O)=C/C(=O)c1ccccc1` it was inactive: > 100 µM.
Regarding `COCOc1cc(OC)ccc1C/C=N/O`, the GI50 is inactive: > 100 µM.
In the case of `NC(=S)C1=C(N)Oc2c(c(=O)oc3ccccc23)C1c1ccc(Br)cc1` (stereo not given), the GI50 was inactive: > 100 µM.
In the case of `Cc1cc(N)ccc1C=O` it was inactive: > 100 µM; in that of `C=C1c2nc3ccccc3n2C=C(c2ccc(C)cc2)N1c1ccc(OC)cc1`, inactive: > 100 µM; in that of `CCOC(=O)C1=C(C)CC2C(=O)OC(=O)C2C1(C)C` (stereo not given), inactive: > 100 µM.
`CCOC(OC1=C(C#N)CCCC1)C(CC)[Se]c1ccccc1` (stereo not given): the GI50 was inactive: > 100 µM.
Take `CCCCCCCC(=O)N/N=C/c1ccc(Sc2nccn2C)c([N+](=O)[O-])c1`: the GI50 was inactive: 27.5 µM.
The figure for `CS/C(=N\c1ccc([N+](=O)[O-])cc1C#N)NC(=O)c1ccccc1` is inactive: > 100 µM.
In the case of `CCCCCC(O)C(O)CCC[C@H](O)[C@H]1CC[C@H]([C@H]2CC[C@H]([C@H](O)CCCCCCCCCCCCC3=C[C@H](C)OC3=O)O2)O1` (stereo not given in full) it was inactive: 4.61 µM; in that of `CCCCCCNCCCNc1c2ccccc2nc2cccc([N+](=O)[O-])c12`, active: 0.0109 µM; in that of `O=C(c1cccs1)N(Cc1cccnc1)C(=S)N(Cc1cccnc1)C(=O)c1cccs1`, inactive: 90.6 µM.
In the case of `COc1ccccc1/C=C1\CCC(CNc2ccc(Cl)cc2)C1=O` (stereo not given), the GI50 is inactive: 13.4 µM.
The figure for `c1ccc2cc(C3NCCc4nc[nH]c43)ccc2c1` (stereo not given) is inactive: > 100 µM; for `OCCCCCNc1ccnc2cc(Cl)ccc12` it is inactive: > 100 µM; for `Cc1ccc(C2(C)NC(=S)N(NC(N)=S)C2=S)cc1` (stereo not given) it is inactive: > 100 µM.
The figure for `O=C(c1cscc1CCc1ccccc1)c1cscc1CCc1ccccc1` is inactive: > 100 µM; for `CN1C(=O)CC(=O)N1/C(=C/c1ccccc1)c1ccccc1` it is inactive: > 100 µM.
The figure for `O=C1N(CN2CCOCC2)CN(CN2CCOCC2)C(=O)N1Cc1ccc(-c2ccc(CN3C(=O)N(CN4CCOCC4)CN(CN4CCOCC4)C3=O)cc2)cc1` is inactive: 16.3 µM; for `NC1=Nc2cc(C(F)(F)F)ccc2Sc2nc3ccccc3n21` it is inactive: > 76.6 µM.
On to `CNC(=O)N(CCC#N)[C@H]1CCCC[C@@H]1N(C(=O)NC)c1ccccc1`, for which the GI50 was inactive: > 100 µM.
In the case of `CN(C)c1ccc(/C=C(\NC(=O)c2ccccc2)C(=O)Nc2ccccc2C(=O)NCc2ccccc2)cc1`, the GI50 is inactive: > 100 µM.
The figure for `C[N+](C)(C)CC1CCC/C1=N\OC(=O)c1ccccc1` (stereo not given) is inactive: > 100 µM.
The figure for `CCOC(=O)C(O)(C(=O)OCC)c1cc(C(C)(C)C)c(O)c(C(C)(C)C)c1` is inactive: 74.1 µM; for `N/N=C(/C(=O)Nc1cccc(Cl)c1)C(C(=O)c1ccc(O)cc1O)C1OC(=O)c2ccccc21` (stereo not given) it is inactive: > 100 µM; for `Cn1ncc(NCCn2cnc3c2c(=O)n(C)c(=O)n3C)c(Cl)c1=O` it is inactive: > 100 µM.
The figure for `O=C1NC(=O)C(CCC(=O)c2ccc3ccccc3c2)C(=O)N1` is inactive: > 100 µM.
Consider `c1ccc(SCCc2ccncc2)cc1`, for which the GI50 is inactive: > 100 µM.
The figure for `CCCCCCCCCC(=O)NC(CCC(=O)N(CCNC(=O)c1nc(-c2ccccc2)oc1-c1ccccc1)Cc1ccccc1)C(=O)O` (stereo not given) is inactive: 19.5 µM.
In the case of `CCC1(OC(=O)CNC)C(=O)OCc2c1cc1n(c2=O)Cc2cc3ccccc3nc2-1` (stereo not given) it was active: 0.112 µM; in that of `O=c1[nH]nc(Cc2ccccc2)n1/N=C/c1c(O)ccc2ccccc12`, inactive: 24.2 µM.
For `OC(c1ccccc1)C1CC2C=CC1C2` (stereo not given), the GI50 is inactive: > 100 µM.
In the case of `Cc1nnc2c3nnc(C)n3c3ccccc3n12` it was inactive: > 100 µM.
The figure for `Nc1nc(NCC2(CO)CC(CCc3ccccc3)C2)cc(=O)[nH]1` (stereo not given) is inactive: > 100 µM; for `O=C(C=P(c1ccccc1)(c1ccccc1)c1ccccc1)c1ccc(-c2ccc(F)cc2F)cc1` it is inactive: 2.52 µM.
The figure for `COc1cc([C@@H]2c3cc4c(cc3[C@@H](NC(=O)c3cccc(F)c3)C3COC(=O)[C@@H]32)OCO4)cc(OC)c1O` (stereo not given in full) is inactive: 7.91 µM; for `COC(=O)[C@H]1C=C[C@@H](C)n2c(=O)c3ccccc3c(=O)n21` it is inactive: > 100 µM.
Turning to `C/C(=N/NC(=S)N1CCN(C(=S)N/N=C(/C)c2ccccn2)CC1)c1ccccn1`, the GI50 was inactive: 18.3 µM.
Take `Nc1cccc(Nc2nc3ccccc3nc2NS(=O)(=O)c2ccccc2)c1`: the GI50 is inactive: 30.3 µM.
Consider `[O-]c1c2cc(-[n+]3c(-c4ccccc4)cc(-c4ccccc4)cc3-c3ccccc3)cc1CO[C@@H](c1ccccc1)[C@H](c1ccccc1)OCCOCCO[C@@H](c1ccccc1)[C@H](c1ccccc1)OC2`, for which the GI50 was active: 0.363 µM.
`Cc1ccc(/C=N/n2c(=O)[nH]c3ccccc3c2=O)cc1`: the GI50 was inactive: > 100 µM.
The figure for `Sc1nnc(CCCCCCCCc2nnc(S)o2)o1` is inactive: > 100 µM.
Regarding `COc1ccc(N[S+]([O-])c2cccc(C)c2)cc1` (stereo not given), the GI50 was inactive: 75.9 µM.
For `CCOC(=O)c1cc2c3c(c(C(C)=O)c(O)c2[nH]1)N(CC(C)CC)CC3` (stereo not given), the GI50 is inactive: > 100 µM.
The figure for `COc1ccc2c(c1)CC[C@@H]1C2CC[C@]2(C)C(=O)N(CCN3CCCCC3)C(=O)CC12` (stereo not given in full) is inactive: 71.6 µM; for `COC(=O)/C(C)=C/[N+](=O)[O-]` it is inactive: 20.3 µM.
In the case of `O=c1cc(NNc2cccc3ccccc23)[nH]c(=O)[nH]1` it was inactive: 16.5 µM.
In the case of `C/C(=N\NC(=S)N(C)C)c1ccccn1` it was active: 0.00272 µM; in that of `Nc1ncnc2c1ncn2C1OC(CO)C(O)C(O)C1O` (stereo not given), inactive: > 100 µM; in that of `CCN(CC)CC1CCCCN1CC(=O)N1c2ccc(Br)cc2C(=O)Nc2cccnc21` (stereo not given), inactive: > 100 µM.
For `CCc1nc(N)nc(N)c1-c1ccc(N2CCNCC2)cc1`, the GI50 was inactive: > 92.9 µM.
In the case of `O=C(Cc1nc2ccccc2c(=O)n1-c1c(Cl)cccc1Cl)c1ccncc1` it was inactive: 26.3 µM; in that of `COc1ccc2c(c1O)-c1c(OC)c(OC)cc3c1[C@H](C2)[N+](C)(C)CC3`, inactive: > 100 µM; in that of `CN(C)CCNC(=O)c1cccc2c1nc(-c1ccccn1)c1ccccc12`, inactive: 16 µM.
